From the supplement of paper PMC4967469
pIC50: −log10 of the molar value. Lines with a small IC50 respond at low doses; a fit beyond the top or the lowest dose is shown as a bound at that dose. For AUC the same curve is integrated over the 256-fold range of doses and scaled to a fraction: 1 means no effect, lower means more sensitive. For some of these results: The top dose, if marked as inferred, comes from the curve model; the source does not state it.

Columns and labels:
Experiment in all cases: Viability of human cancer cell lines after 72 h of drug (GDSC screen)
PIK-93 = compound: CC(=O)Nc1nc(C)c(-c2ccc(Cl)c(S(=O)(=O)NCCO)c2)s1 [PIK-93]; details: top dose 20 µM
Method: (§1)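 Human cancer cell lines in 384-well plates, medium with 10% serum, drug for 72 h over a 256-fold dose range (nine 2-fold or five 4-fold steps up to the top dose). Adherent lines were fixed and stained with the nucleic acid dye Syto60, suspension lines read with resazurin; signal relative to control wells, capped at 0 and 100%. One two-parameter sigmoid per drug and line, fitted in a mixed model over all curves with the slope shared within a line.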

ABT-263 = compound: CC1(C)CCC(c2ccc(Cl)cc2)=C(CN2CCN(c3ccc(C(=O)NS(=O)(=O)c4ccc(N[C@H](CCN5CCOCC5)CSc5ccccc5)c(S(=O)(=O)C(F)(F)F)c4)cc3)CC2)C1 [ABT-263]; details: top dose 2 µM; top dose inferred
Method: as §1

GW843682X = compound: COc1cc2ncn(-c3cc(OCc4ccccc4C(F)(F)F)c(C(N)=O)s3)c2cc1OC [GW843682X]; details: top dose 0.256 µM
Method: as §1

GW 441756 = compound: Cn1cc(/C=C2\C(=O)Nc3cccnc32)c2ccccc21 [GW 441756]; details: top dose 2 µM; top dose inferred
Method: as §1

Salubrinal = compound: O=C(/C=C/c1ccccc1)NC(NC(=S)Nc1cccc2cccnc12)C(Cl)(Cl)Cl [Salubrinal]; details: top dose 16 µM; top dose inferred
Method: as §1

piperlongumine = compound: COc1cc(/C=C/C(=O)N2CCC=CC2=O)cc(OC)c1OC [piperlongumine]; details: top dose 10 µM
Method: as §1

Cell Line | AUC (PIK-93) | pIC50 (PIK-93) | AUC (ABT-263) | pIC50 (ABT-263) | AUC (GW843682X) | pIC50 (GW843682X) | AUC (GW 441756) | pIC50 (GW 441756) | AUC (Salubrinal) | pIC50 (Salubrinal) | AUC (piperlongumine) | pIC50 (piperlongumine)
DJM-1 (skin, adherent) | 0.929 | < 4.70 | 0.958 | < 5.70 | 0.628 | 7.44 | 0.988 | < 5.70 | 0.903 | < 4.80 |  | 
IST-SL2 (small cell lung carcinoma, suspension) |  |  | 0.622 | 6.57 | 0.66 | 7.35 | 0.986 | < 5.70 | 0.862 | 4.87 | 0.965 | < 5.00
NCI-H446 (small cell lung carcinoma, semi-adherent) |  |  | 0.57 | 6.71 | 0.435 | 7.98 | 0.985 | < 5.70 | 0.949 | < 4.80 | 0.784 | 5.34
LS-123 (large intestine, adherent) | 0.93 | < 4.70 |  |  | 0.782 | 6.84 | 0.981 | < 5.70 | 0.949 | < 4.80 | 0.807 | 5.13
NCI-H64 (small cell lung carcinoma, suspension) | 0.437 | 6.06 | 0.784 | 6.20 | 0.654 | 7.42 | 0.996 | < 5.70 | 0.988 | < 4.80 |  | 
JAR (urogenital system, adherent) | 0.693 | 5.37 | 0.984 | < 5.70 | 0.575 | 7.59 |  |  | 0.88 | < 4.80 | 0.702 | 5.64
NB7 (neuroblastoma, adherent) | 0.883 | < 4.70 | 0.986 | < 5.70 | 0.985 | < 6.59 |  |  | 0.96 | < 4.80 | 0.749 | 5.47
KASUMI-1 (acute myeloid leukaemia, suspension) |  |  |  |  | 0.931 | < 6.59 | 0.948 | < 5.70 | 0.985 | < 4.80 | 0.78 | 5.39
RCC10RGB (kidney, adherent) | 0.852 | < 4.70 | 0.926 | < 5.70 | 0.92 | < 6.59 | 0.968 | < 5.70 | 0.827 | < 4.80 |  | 
LOXIMVI (melanoma, semi-adherent) | 0.879 | 4.78 | 0.984 | < 5.70 | 0.72 | 7.21 |  |  | 0.974 | < 4.80 | 0.705 | 5.66
LB647-SCLC (small cell lung carcinoma, semi-adherent) |  |  | 0.94 | < 5.70 | 0.555 | 7.64 | 0.883 | < 5.70 | 0.985 | < 4.80 | 0.82 | 5.18
NCI-H1666 (lung adenocarcinoma, semi-adherent) | 0.913 | < 4.70 |  |  | 0.987 | < 6.59 | 0.965 | < 5.70 | 0.984 | < 4.80 | 0.81 | 5.23
SW954 (urogenital system, adherent) | 0.595 | 5.64 |  |  | 0.46 | 7.91 | 0.971 | < 5.70 | 0.964 | < 4.80 |  | 
GA-10 (Burkitt lymphoma, suspension) |  |  | 0.991 | < 5.70 | 0.498 | 7.80 | 0.99 | < 5.70 | 0.725 | 5.41 | 0.761 | 5.52
PL-21 (acute myeloid leukaemia, suspension) | 0.338 | 6.39 |  |  | 0.53 | 7.71 | 0.97 | < 5.70 | 0.877 | < 4.80 | 0.802 | 5.23
MOLT-4 (lymphoblastic leukaemia, suspension) | 0.706 | 5.38 |  |  | 0.445 | 7.93 | 0.98 | < 5.70 | 0.863 | 5.01 | 0.787 | 5.46
TE-10 (oesophagus, adherent) | 0.958 | < 4.70 | 0.988 | < 5.70 | 0.435 | 7.97 |  |  | 0.901 | < 4.80 | 0.771 | 5.42
BB65-RCC (kidney, adherent) | 0.923 | < 4.70 |  |  | 0.709 |  | 0.968 | < 5.70 | 0.902 | < 4.80 | 0.657 | 5.74
H-EMC-SS (chondrosarcoma, adherent) | 0.57 | 5.69 | 0.834 | 5.72 | 0.888 | < 6.59 |  |  | 0.981 | < 4.80 |  | 
NCI-H1355 (lung adenocarcinoma, adherent) | 0.971 | < 4.70 | 0.937 | < 5.70 | 0.472 | 7.89 |  |  | 0.875 | < 4.80 | 0.814 | 5.05
SU-DHL-8 (B-cell lymphoma, suspension) | 0.524 | 5.84 | 0.691 | 6.39 | 0.399 | 8.06 |  |  | 0.775 | 5.23 | 0.924 | < 5.00
THP-1 (acute myeloid leukaemia, suspension) | 0.75 | 5.22 |  |  | 0.972 | < 6.59 | 0.991 | < 5.70 | 0.972 | < 4.80 | 0.825 | 5.28
MZ7-mel (melanoma, adherent) | 0.763 | 5.13 | 0.987 | < 5.70 | 0.737 | 7.11 |  |  | 0.959 | < 4.80 | 0.757 | 5.45
RL95-2 (endometrium, adherent) | 0.902 | < 4.70 |  |  | 0.451 | 7.93 | 0.959 | < 5.70 | 0.92 | < 4.80 | 0.786 | 5.37
no-10 (glioma, adherent) | 0.922 | < 4.70 |  |  | 0.569 | 7.59 | 0.978 | < 5.70 | 0.902 | < 4.80 | 0.729 | 5.48

Cell Line | AUC (PIK-93) | pIC50 (PIK-93) | AUC (ABT-263) | pIC50 (ABT-263) | AUC (GW843682X) | pIC50 (GW843682X) | AUC (GW 441756) | pIC50 (GW 441756) | AUC (Salubrinal) | pIC50 (Salubrinal) | AUC (piperlongumine) | pIC50 (piperlongumine)
SKM-1 (haematopoietic neoplasm, suspension) |  |  | 0.383 | 7.24 | 0.984 | < 6.59 |  |  | 0.983 | < 4.80 | 0.717 | 5.56
KARPAS-231 (B-cell leukaemia, suspension) |  |  | 0.276 | 7.46 | 0.398 | 8.05 | 0.992 | < 5.70 | 0.838 | 5.13 | 0.822 | 5.38
LB996-RCC (kidney, adherent) | 0.901 | < 4.70 | 0.928 | < 5.70 | 0.783 | 6.90 |  |  | 0.913 | < 4.80 | 0.908 | < 5.00
KG-1 (acute myeloid leukaemia, suspension) | 0.71 | 5.34 | 0.593 | 6.66 | 0.99 | < 6.59 |  |  | 0.971 | < 4.80 | 0.819 | 5.31
ES1 (Ewing sarcoma, adherent) | 0.609 | 5.61 | 0.972 | < 5.70 | 0.668 | 7.33 |  |  | 0.901 | < 4.80 | 0.619 | 5.88
IM-9 (myeloma, suspension) |  |  | 0.96 | < 5.70 | 0.983 | < 6.59 | 0.992 | < 5.70 | 0.98 | < 4.80 | 0.819 | 5.33
NCI-H1581 (large cell lung carcinoma, semi-adherent) | 0.92 | < 4.70 |  |  | 0.634 | 7.44 | 0.977 | < 5.70 | 0.914 | < 4.80 | 0.779 | 5.42
LU-65 (large cell lung carcinoma, suspension) | 0.645 | 5.47 |  |  | 0.854 | < 6.59 | 0.987 | < 5.70 | 0.924 | < 4.80 | 0.976 | < 5.00
NTERA-2 cl.D1 (testis, adherent) | 0.902 | < 4.70 |  |  | 0.549 | 7.66 | 0.959 | < 5.70 | 0.847 | 4.94 | 0.51 | 6.18
SK-N-DZ (neuroblastoma, adherent) | 0.923 | < 4.70 |  |  | 0.597 | 7.53 | 0.988 | < 5.70 | 0.984 | < 4.80 | 0.725 | 5.57
ES3 (Ewing sarcoma, adherent) | 0.652 | 5.47 | 0.877 | < 5.70 | 0.962 | < 6.59 |  |  | 0.933 | < 4.80 | 0.778 | 5.37
SBC-1 (small cell lung carcinoma, suspension) | 0.844 | 4.87 | 0.741 | 6.23 | 0.865 | 6.67 |  |  | 0.964 | < 4.80 | 0.777 | 5.41
NCI-H716 (large intestine, suspension) | 0.851 | < 4.70 |  |  | 0.975 | < 6.59 | 0.969 | < 5.70 | 0.956 | < 4.80 | 0.742 | 5.42
HT-144 (melanoma, adherent) | 0.943 | < 4.70 | 0.984 | < 5.70 | 0.495 | 7.81 |  |  | 0.896 | < 4.80 | 0.703 | 5.60
SCC-15 (head and neck, adherent) | 0.866 | < 4.70 | 0.879 | < 5.70 | 0.904 | < 6.59 |  |  | 0.932 | < 4.80 | 0.855 | < 5.00
KMS-12-BM (myeloma, suspension) | 0.647 | 5.53 |  |  | 0.444 | 7.94 | 0.985 | < 5.70 | 0.828 | 5.12 |  | 
LNCaP-Clone-FGC (prostate, adherent) | 0.789 | 4.99 | 0.978 | < 5.70 | 0.984 | < 6.59 |  |  | 0.964 | < 4.80 | 0.808 | 5.22
HEL (acute myeloid leukaemia, semi-adherent) | 0.828 | 5.02 |  |  | 0.487 | 7.83 |  |  | 0.858 | 5.01 | 0.75 | 5.55
DOHH-2 (B-cell lymphoma, suspension) |  |  | 0.649 |  | 0.626 | 7.45 | 0.986 | < 5.70 | 0.816 | 5.07 |  | 
LC-2-ad (lung adenocarcinoma, adherent) | 0.726 | 5.25 | 0.891 | < 5.70 | 0.346 | 8.23 |  |  | 0.926 | < 4.80 | 0.801 | 5.30
TC-71 (Ewing sarcoma, adherent) | 0.415 | 6.12 | 0.991 | < 5.70 | 0.788 | 7.03 |  |  | 0.959 | < 4.80 | 0.656 | 5.81
Hs-445 (Hodgkin lymphoma, suspension) | 0.826 | 4.96 |  |  | 0.699 | 7.26 |  |  | 0.977 | < 4.80 | 0.828 | 5.26
LB2241-RCC (kidney, adherent) | 0.972 | < 4.70 |  |  | 0.938 | < 6.59 | 0.98 | < 5.70 | 0.69 | 5.44 | 0.756 | 5.42
NCI-H1963 (small cell lung carcinoma, suspension) | 0.967 | < 4.70 |  |  | 0.384 | 8.09 | 0.991 | < 5.70 | 0.828 | 5.09 |  | 
COLO-829 (melanoma, adherent) | 0.856 | < 4.70 |  |  | 0.948 | < 6.59 |  |  | 0.92 | < 4.80 | 0.913 | < 5.00
